# Experimental data: the supplement of paper PMC10126150
# Values marked as one replicate rest on one cluster of the flow cell; about a third of the high ones do not repeat.
# Tested on: ATP
# Experiment: switch fluorescence ratio, 500 uM ATP over buffer (Cy3 cluster intensity, sum of 5 cycles each) (fold (ratio)); higher = stronger signal-on switching upon ATP binding; sequences stand for … in TCGTCGGCAGCGTCAGATGTGTATAAGAGACAGTTTTTTTTTTTTTTTTTTTTTTTTT…TC
# Settings: aptamer strand: ATP DNA aptamer (quencher-CACCTGGGGGAGTATTGCGGAGGAAGG + anchor), 100 nM annealed; ATP concentration: 500 uM; one replicate
# How it was run: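 Cy3-labelled switching-strand clusters on a modified Illumina MiSeq flow-cell were annealed to 100 nM quencher-labelled ATP aptamer and imaged first in selection buffer, then after 15 min with 500 uM ATP at 22 °C. NaOH stripping and re-annealing separated each of five buffer/ATP cycles, and clusters outside 100-1000 RFU were excluded. The fluorescence ratio sums target-cycle Cy3 intensity over buffer-cycle Cy3 intensity per cluster and averages it per switch-domain sequence.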
# 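Note: ATP exposure 15 min at 22 °C before imaging.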
row,Sequence,switch fluorescence ratio
1,TACGTAATC,1.75
2,TAGAATGTTG,0.978
3,TCCAGTTGG,0.979
4,TTATCCCGAC,1.13
5,TCTGACGTTG,1.03
6,TATGCCGAGA,1.09
7,CTCCCAAGGG,3.14
8,TACCCAATGA,1.04
9,AATCGGACTT,0.961
10,GATGACCGTC,1.05
11,GGGGGTTCGC,0.971
12,TTAACTCACC,1.17
13,ATTCTGAGGT,1.02
14,TGATAGATTA,1.06
15,ACGCAACCCC,3.14
16,CCAGTCCTGT,0.97
17,TGGCTGGATA,1.01
18,AATAGACTTG,0.977
19,TTAGGGAGAT,0.982
20,ATGAATCGAG,0.972
21,GCAGTTTGG,1.02
22,GCATAAAGGT,0.978
23,TGGTGATATT,1.03
24,TTCCGTTTAG,2.28
25,TCCGGGCCTG,1.01

row,Sequence,switch fluorescence ratio
1,ACTTCGATCG,1.06
2,TGGGGGATGA,1.02
3,CATATAAGAG,0.981
4,TGCGTTTTGT,1.02
5,GCCCAGGATT,1.15
6,CATAAACAAA,0.972
7,CTGGATAGGG,0.95
8,TTACCAATTT,0.964
9,TGTTGAAATG,0.981
10,AAATAGATC,0.962
11,TGCGTGGCAA,1.01
12,TAATCTACGA,1.02
13,TGTTGCTAGC,1.06
14,GGGCCGCGC,0.976
15,AAGCAGAATG,0.971
16,TTCAGAGTTA,0.959
17,GAGCCTGAGC,1.09
18,CTAAAGGTTG,0.972
19,TTCTGAAATT,1.03
20,TCGTATTTAG,1.03
21,ACTTTGAGGA,0.976
22,GAACACCATT,1.01
23,AACCTGCCAA,1.72
24,ATCCAACTCG,1.02
25,GCGGATAGGG,1.05

row,Sequence,switch fluorescence ratio
1,TAAAAGAGCG,1.03
2,GCTTATCGGC,0.967
3,AGCAGATTCT,0.979
4,AGGAAAAAT,0.983
5,TGTCATGAAT,0.97
6,GCGGGGGCAC,0.993
7,TCATGGTTAC,1.06
8,ATATTTATTA,0.999
9,GCGGAGCCCA,0.985
10,GTTTCAATAT,1
11,ATAGTTCAG,0.992
12,CTTCGAGGTG,1.03
13,GCCATGCGCG,0.986
14,AACATAGGGT,0.985
15,TTGGCTAACC,1.02
16,ATCCCTTCTT,1.06
17,CATTTTAATC,1.05
18,TGAAGGTATA,1.02
19,CAAATGGAT,1.05
20,TTGTGAATCC,0.999
21,TGCGTTTACA,0.98
22,CAAAGAGAGG,1.01
23,ACAATTTTTT,0.997
24,TCTAGGGTTG,0.984
25,CGCGCTGAAT,1

row,Sequence,switch fluorescence ratio
1,GAACGTCCGA,1.07
2,GGTCATTGCG,1.01
3,TAGTTCCGTC,1.02
4,CTTGGGAGGT,1.01
5,TTTTGCGAGC,1
6,TTAGCCGAAT,1.01
7,TTAGTGGAG,0.98
8,AGAAGGAGAT,0.981
9,AAAGGGATTT,0.972
10,ATTCTAAGTC,1.05
11,GCGGCCCGGC,1.02
12,TATCTATCTG,0.996
13,CTAAGTAGGG,1.03
14,GCTCATAAAT,0.993
15,CTTAACCTGG,1.05
16,AGTGGGCCCC,1.01
17,AAAGGTCTTG,1.03
18,GGGATATACC,1.03
19,GATGTTGACC,0.991
20,AATTGACCGT,1.03
21,GTGGATGACT,1.03
22,TCTCCGTGTA,4.03
23,CTTGTGCGGC,0.95
24,AGAACGTAAT,1.09
25,GATTTGGTGC,0.93

row,Sequence,switch fluorescence ratio
1,AATCGATTTA,0.986
2,GCTTTGGTGC,0.975
3,TTGGACTT,1.01
4,GTAGGGGGGC,0.961
5,GTTAGGTCG,1.04
6,TTGCGTACT,1.11
7,CGCTCATCAT,1.01
8,AGACGTACTT,1.13
9,TCAGCATGGA,1.05
10,ATCAATCATC,0.997
11,TTTGTCTGAA,1.01
12,TAATCCGTTG,0.989
13,GGTACCTAGA,1.03
14,GCCCGATTGG,0.986
15,ACACGTCTGC,1.15
16,GCTGCGTGCT,0.978
17,AATTGTCTGT,1.03
18,TGCCATAGTT,1.01
19,AGGTCTGAGG,1.01
20,TATTGTCTGA,1.01
21,GAGTATGGAT,1.02
22,GAATGTCCGC,1.12
23,TCTCTCGAGC,1.1
24,TCCATTTGAA,0.974
25,GAATGCATCG,0.978

row,Sequence,switch fluorescence ratio
1,ACATGGTACC,1.07
2,ATAAGGATTT,1.02
3,TATACAATGC,1.64
4,ATCATACGAG,1.05
5,ATAGTGCGGG,0.974
6,CCCTACGGGG,1.11
7,TTGGAGCTAA,1.33
8,GTCCATATAG,1.04
9,AGATAACACA,1.02
10,GATTGCGAAT,1.02
11,AACGCCTATT,1.05
12,CCATTGGTTA,0.992
13,TCACCCGGGT,1.02
14,AATATGGTGT,1
15,CTCCGTCGGT,3.48
16,TAGGCATGTA,1.02
17,TCATCTCGTT,1.04
18,CTTAAAGGGG,1
19,CCAATAGCTT,1.03
20,GAGATAGGCA,1
21,AGGGACCTGG,1.1
22,GTTGGCCGGT,0.924
23,ACTTAGACAG,1
24,ATCACAGAAC,1.24
25,CAAACGGTAA,1.08

row,Sequence,switch fluorescence ratio
1,CTTCGGCTG,1.04
2,AATGTTGTAT,0.953
3,AGTACGGCAT,1.05
4,CAAAAGTGCA,1.08
5,GCCGAAATG,1.07
6,TATTTGATAA,1.07
7,TAGAACGACA,1.05
8,ATAGTAGGCG,1.03
9,CGAACAGCT,1.02
10,TTAAAAGTAA,0.995
11,GACAGAATGA,1.01
12,GGACACACCA,1.27
13,TAAAACGTAG,1
14,CCGTTAATTT,1.18
15,AGACTTGATG,0.945
16,GTGGTCCTTA,0.976
17,CGGTCACAAG,1.01
18,CCCCTCTCTG,1.06
19,AATCAAGAGA,0.945
20,ACGCGCGCCG,1
21,TTATTATT,1.01
22,GGTGTAGGTT,0.957
23,TAGGACGATG,0.997
24,CATCTCCATA,1.01
25,CAAACGTGAT,1.29

row,Sequence,switch fluorescence ratio
1,GTGACGCGCC,1.13
2,TCATAATCAT,1.02
3,CCGTTAGGCA,1.04
4,CGGGCTTAC,2.07
5,TTAGGCAATT,0.961
6,CCAGCCTGCC,1.47
7,GGTAAGGGCA,1.03
8,GACATCGCAG,1.11
9,TAAGAGTAGG,1.01
10,GACTAGGGTG,1.02
11,AGAGCTGATG,0.984
12,TTAGGGTTCA,1.02
13,CACCATTTGC,1.01
14,AGAAAGGAGA,0.989
15,TAAGTTCCGG,0.986
16,CCGTGCGTCA,1.32
17,AGTCAATTGG,0.949
18,GAACGGTTGG,1.01
19,TTTCTGCCAA,1.04
20,CCGTACGAGA,1.64
21,AGATACAGAC,1.12
22,TCGGTTTGGG,1
23,GGCGTCTGTA,0.97
24,CTTCTCAGCA,1.88
25,CTACTTTCTT,1.03
